Assay results reported in PubChem BioAssay AID743279 (National Center for Advancing Translational Sciences (NCATS), 2014).
About 17,000 (4.7%) of roughly 360,000 compounds were called active. Inconclusive results, whose numbers are uncertain, are shown with a selection of clear calls. Rule as the data show it: active = activity change below about -50%; inconclusive = mostly about -30% to -49%; inactive = weaker than that.

test: qHTS for Inhibitors of Inflammasome Signaling: IL-1-beta AlphaLISA Primary Screen; conditions: THP-1 LPS/ATP IL-1B secretion, 16 h; at 57.5 µM, active compounds read low
Outline: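 Secreted IL-1B measured by AlphaLISA bead assay after 16 h compound exposure of THP-1 cells; compounds (final up to 57.5 uM) added 1 h before LPS (250 ng/mL) and ATP (1.25 mM) stimulation; lower signal means less secretion.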
% is scaled to controls: 0 for no effect and ±100 for the full control effect.

Activity change, inactive:
O=C(NCc1cccc(Cl)c1)c1ccc(-n2ccnc2)c2ccoc12 -23.7%
Cc1cn([C@H]2C[C@H](O)[C@@H](CNCC3=Cc4cc(O)ccc4OC3)O2)c(=O)[nH]c1=O -21%
Cc1nn(C)cc1/C=N/NC(=O)c1ccc2c(c1)OCO2 24.1%
CCN(Cc1cccs1)C(=O)CN1CCN(S(=O)(=O)c2ccc3c(c2)OCCCO3)CC1 -26.5%

Activity change, inconclusive:
Cc1ccn2c(NC(C)(C)C)c(-c3cccs3)nc2c1 -30.5%
COCc1nc2oc3ccc(C)cc3c(=O)c2cc1C(=O)OC -32.2%
CCc1ccc([C@H]2[C@@H]3C(=O)C[C@@H]4C(=O)N(C5CCCCC5)C(=O)[C@@H]4[C@@H]3CN2S(=O)(=O)c2ccc(C)cc2)cc1 -34.3%
Cc1ccc(CNC(=O)CN2C(=O)CSc3ccc(S(=O)(=O)N4CCC(C)CC4)cc32)cc1 -44.9%
CC(=O)c1cccc(NS(=O)(=O)c2ccc(N/C=C\C(=O)c3ccc(F)cc3)cc2)c1 -47.6%
COc1cccc(-c2nn(C)c3sc(C(=O)N4CCN(c5ccccn5)CC4)cc23)c1 -35.9%
CC(=O)c1ccc(NC(=O)COC(=O)c2ccccc2N=Nc2ccc(N(C)C)cc2)cc1 -41.2%
Cc1ccc(-c2csc(N3CCC[C@@H]3C(=O)NCCn3c(-c4ccncc4)nc4ccccc43)n2)cc1 -34.3%
CCN(CC)CCCN=Cc1c(O)n(Cc2ccccc2)c(=O)c2ccccc12 -42%

Activity change, active:
O=C(NCCN1CCC(n2c(=O)[nH]c3ccccc32)CC1)c1cccc(F)c1 -73.9%
Cc1ccc(-c2nn(-c3ccccc3)cc2NC(=O)CCl)cc1 -99.7%
COCCNC(=S)N(CCc1c(C)[nH]c2ccc(Cl)cc12)Cc1cccs1 -92.3%
CN1C2CCC1/C(=C\c1ccccc1F)C(=O)/C2=C/c1ccccc1F -101%
CN(C)c1ccc(NC2=C(Cl)C(=O)c3ccccc3C2=O)cc1 -99.6%
CCN(CC(=O)NC(C)(C)C)Cc1nc2c(Br)cc(Br)cc2c(=O)[nH]1 -100%
CSc1ccc(Cn2c(C)c(C(=O)NCc3ccco3)sc2=O)cc1 -101%
COc1ccccc1N1CCN(/N=C\C(Br)=C\c2ccccc2)CC1 -66.9%
O=S(=O)(c1ccccc1)N(CC1CO1)c1cccc2ccccc12 (stereo not drawn) -68.6%
N#Cc1c(-c2ccccc2)nc(SCc2ccc(Cl)cc2)[nH]c1=O -54.3%
